Earlier results in publication PMC6327852 (Journal of cellular physiology, 2016).

Test system: GRP78
Conditions: reduced from >24 h; ref Booth et al., 2012; cited from earlier work

SMILES: NCC(=O)Nc1ccc(-n2nc(C(F)(F)F)cc2-c2ccc3c(ccc4ccccc43)c2)cc1 [AR-12]
- GRP78 protein half-life after treatment: approximately 10 h
